# Measured values taken from the BET-seq Pho4 binding data (Le et al. 2018).
# This is one part of the list. These are noisy estimates, calculated here from bound and input reads.
# Target: T1, Pho4 (S. cerevisiae) (UniProt P07270)
# T1 sequence: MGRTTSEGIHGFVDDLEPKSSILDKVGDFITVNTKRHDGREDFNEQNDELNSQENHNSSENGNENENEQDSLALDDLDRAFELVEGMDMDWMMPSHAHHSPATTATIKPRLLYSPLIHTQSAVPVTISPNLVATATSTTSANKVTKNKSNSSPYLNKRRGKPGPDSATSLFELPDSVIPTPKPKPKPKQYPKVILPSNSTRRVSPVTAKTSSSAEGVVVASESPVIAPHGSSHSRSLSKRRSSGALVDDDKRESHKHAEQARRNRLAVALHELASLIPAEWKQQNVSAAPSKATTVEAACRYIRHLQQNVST
# Assay: relative binding free energy (BET-seq); higher = weaker binding
# Settings: reference: library average
row,Sequence,relative binding free energy
1,ACTGGCACGTGTGAGG,-0.07 kcal/mol
2,TTGTTCACGTGAAATA,0.38 kcal/mol
3,TTTTCCACGTGTTGAG,-0.02 kcal/mol
4,GGGGGCACGTGGATCG,-0.07 kcal/mol
5,TTAGTCACGTGAAGTT,0.38 kcal/mol
6,GGAGGCACGTGTTATT,-0.04 kcal/mol
7,GTTACCACGTGCAGTT,0.23 kcal/mol
8,AGTTTCACGTGTAGAC,0.26 kcal/mol
9,TGGTTCACGTGCTATG,0.11 kcal/mol
10,AGGTGCACGTGTGATT,0.13 kcal/mol
11,AGGTTCACGTGGTTAT,0.24 kcal/mol
12,TAGTCCACGTGGGTTG,-0.03 kcal/mol
13,TCCATCACGTGGGGTT,-0.1 kcal/mol
14,GGGGGCACGTGGACTA,-0.03 kcal/mol
15,TGGCACACGTGGTTTA,-0.07 kcal/mol
16,TCAATCACGTGTGGAT,0.12 kcal/mol
17,GGGGTCACGTGCTGAG,0.12 kcal/mol
18,TTAGGCACGTGACTTG,-0.04 kcal/mol
19,TTTTGCACGTGGAGCG,-0.01 kcal/mol
20,GAGCCCACGTGGGTTG,0 kcal/mol
21,TCGATCACGTGTTGGA,0.11 kcal/mol
22,GTTAGCACGTGGGTTT,-0.13 kcal/mol
23,TCGAGCACGTGTATGT,0 kcal/mol
24,TGTGGCACGTGTCACG,-0.04 kcal/mol
25,TCGGGCACGTGATGAG,0.1 kcal/mol
26,GCTCGCACGTGGTTGG,-0.08 kcal/mol

row,Sequence,relative binding free energy
1,AGGCTCACGTGGGAGG,0.15 kcal/mol
2,AAGCGCACGTGGTGGT,-0.11 kcal/mol
3,TAGTTCACGTGCGTGT,0.18 kcal/mol
4,CTGGTCACGTGAAGAT,0.3 kcal/mol
5,CTTTTCACGTGTTTAT,0.29 kcal/mol
6,TGATGCACGTGAGGGA,0.19 kcal/mol
7,GATTTCACGTGGGGGC,0.23 kcal/mol
8,TAGTTCACGTGGGTCG,0.12 kcal/mol
9,AAGCGCACGTGTGAGG,-0.07 kcal/mol
10,TTAATCACGTGTTTGC,0.19 kcal/mol
11,GTGGGCACGTGGACCG,-0.07 kcal/mol
12,GATGGCACGTGATGAA,0.11 kcal/mol
13,CGGCGCACGTGGGTTA,-0.23 kcal/mol
14,ATATTCACGTGGTACT,0.14 kcal/mol
15,AGTAGCACGTGTACGG,0 kcal/mol
16,GTGTACACGTGTGGGC,0.13 kcal/mol
17,TATGGCACGTGGGTCA,-0.28 kcal/mol
18,AGTCTCACGTGTTCGG,0.21 kcal/mol
19,AGTATCACGTGTGGGC,0.17 kcal/mol
20,ATTGTCACGTGTGCAA,0.07 kcal/mol
21,AGGATCACGTGCTGGG,0.14 kcal/mol
22,GATATCACGTGATGGG,0.31 kcal/mol
23,GGTGTCACGTGAGCGG,0.31 kcal/mol
24,TGATACACGTGATTTG,0.35 kcal/mol
25,ATGGTCACGTGGTTAT,0.05 kcal/mol
26,GTTTTCACGTGACTTA,0.27 kcal/mol

row,Sequence,relative binding free energy
1,TTGCGCACGTGGATAT,-0.17 kcal/mol
2,GTGTCCACGTGCGGTA,0.05 kcal/mol
3,TGATACACGTGGGGGT,-0.08 kcal/mol
4,TTTCTCACGTGTACGT,0.29 kcal/mol
5,ATGGTCACGTGACATG,0.36 kcal/mol
6,TCTAGCACGTGTTAGG,0.05 kcal/mol
7,TGGCCCACGTGGTTTT,-0.06 kcal/mol
8,GGGAGCACGTGAGGAA,0.17 kcal/mol
9,TGGATCACGTGGGAAT,0.08 kcal/mol
10,GTGGTCACGTGTTTGT,0.13 kcal/mol
11,GTTGGCACGTGCTGGA,-0.13 kcal/mol
12,CGAGTCACGTGCGGAG,0.23 kcal/mol
13,AAGAGCACGTGGTGGA,-0.14 kcal/mol
14,ATTAACACGTGGCTTG,-0.07 kcal/mol
15,GGATTCACGTGTAGTA,0.4 kcal/mol
16,GGTGTCACGTGTCGTG,0.14 kcal/mol
17,CTCGGCACGTGGTGGC,-0.17 kcal/mol
18,TAGCGCACGTGGCGTG,-0.3 kcal/mol
19,TGTCGCACGTGCGAGT,-0.07 kcal/mol
20,TTGTTCACGTGTCTCT,0.25 kcal/mol
21,TTTCTCACGTGTATGC,0.35 kcal/mol
22,GTTGTCACGTGGTGGA,0.09 kcal/mol
23,GACGGCACGTGGACGT,0.17 kcal/mol
24,ATGGGCACGTGGTGCG,-0.2 kcal/mol
25,GAGGTCACGTGGATAG,0.1 kcal/mol
26,TCGGGCACGTGTATGT,0.02 kcal/mol

row,Sequence,relative binding free energy
1,TAAGACACGTGTGGAG,0.02 kcal/mol
2,CTTTTCACGTGACGGG,0.22 kcal/mol
3,TGGCTCACGTGTAGGG,0.13 kcal/mol
4,AATGGCACGTGCACGT,-0.03 kcal/mol
5,TTAATCACGTGTCGGG,0.26 kcal/mol
6,GGGTTCACGTGCGTCT,0.19 kcal/mol
7,TAAGTCACGTGAAGTA,0.31 kcal/mol
8,TAGCGCACGTGGTGGC,-0.27 kcal/mol
9,AGAATCACGTGGATTG,0.11 kcal/mol
10,TTATACACGTGTCTAT,-0.1 kcal/mol
11,GTAGACACGTGATGTG,0.06 kcal/mol
12,ATTGCCACGTGTCGTG,-0.09 kcal/mol
13,GAGTGCACGTGTATAT,0.05 kcal/mol
14,GTAGTCACGTGAAGTG,0.28 kcal/mol
15,ACAGGCACGTGTTGGC,0.05 kcal/mol
16,CTGTTCACGTGATATG,0.27 kcal/mol
17,TTCATCACGTGAAGGG,0.17 kcal/mol
18,GATATCACGTGTTGTG,0.21 kcal/mol
19,GGATTCACGTGAGCGG,0.4 kcal/mol
20,TAGCGCACGTGTGAGG,0.04 kcal/mol
21,TGAAGCACGTGGGTTT,-0.1 kcal/mol
22,TAATACACGTGTTGAA,0.1 kcal/mol
23,AGTTGCACGTGCATGG,-0.06 kcal/mol
24,TAGTTCACGTGGGAAC,0.26 kcal/mol
25,CGGGGCACGTGGGTGC,-0.29 kcal/mol
26,GGTCTCACGTGGTTCG,0.28 kcal/mol

row,Sequence,relative binding free energy
1,TTTATCACGTGAATGA,0.3 kcal/mol
2,GTAGCCACGTGAGGGG,0.15 kcal/mol
3,AGGAGCACGTGGGTGA,-0.34 kcal/mol
4,TATCTCACGTGGGTTG,0.23 kcal/mol
5,ATCGACACGTGTTGTT,0.04 kcal/mol
6,AATATCACGTGGTTTG,0.11 kcal/mol
7,AGAGTCACGTGAGGGG,0.3 kcal/mol
8,ATATTCACGTGAATTG,0.24 kcal/mol
9,GGATACACGTGGGCGT,-0.2 kcal/mol
10,CTGTGCACGTGAGTCG,0.26 kcal/mol
11,TGGGTCACGTGGCGAT,0.03 kcal/mol
12,AAGTGCACGTGTATGT,0.05 kcal/mol
13,GTATGCACGTGGGTTG,-0.13 kcal/mol
14,CGCGACACGTGTGTGT,-0.04 kcal/mol
15,TTATTCACGTGATAGT,0.22 kcal/mol
16,TTCTCCACGTGTAGGT,0.05 kcal/mol
17,ATGCTCACGTGAATGG,0.35 kcal/mol
18,GGGTACACGTGCTAAG,0.12 kcal/mol
19,AGATGCACGTGTCGTG,-0.01 kcal/mol
20,TATAACACGTGGGCGA,-0.05 kcal/mol
21,GTCATCACGTGAGTTG,0.33 kcal/mol
22,GGCATCACGTGTTAGT,0.23 kcal/mol
23,GTTAGCACGTGCGGAT,-0.07 kcal/mol
24,GACTGCACGTGAGGGA,0.41 kcal/mol
25,GGTAGCACGTGGTGCA,-0.12 kcal/mol
26,TGTATCACGTGCTGGC,0.16 kcal/mol

row,Sequence,relative binding free energy
1,TCTACCACGTGGTGTG,-0.01 kcal/mol
2,TCATGCACGTGTTTTT,0.03 kcal/mol
3,GTGCGCACGTGGGCGT,-0.17 kcal/mol
4,TTTATCACGTGCAAGG,0.1 kcal/mol
5,CATGGCACGTGTATGT,-0.01 kcal/mol
6,TTGGTCACGTGGTATT,0.03 kcal/mol
7,TTTACCACGTGGGGGG,-0.03 kcal/mol
8,GTGGTCACGTGAAAAT,0.41 kcal/mol
9,TGTTCCACGTGTGGAC,0.19 kcal/mol
10,GTGCACACGTGTTTTG,0.07 kcal/mol
11,ATTATCACGTGCTTAT,0 kcal/mol
12,GTTCACACGTGGGCTG,0.05 kcal/mol
13,GGCCTCACGTGTGGGG,0.13 kcal/mol
14,GGTGACACGTGCGGTA,-0.1 kcal/mol
15,CCGGGCACGTGTGAGG,0 kcal/mol
16,GAGTACACGTGGAAGT,0.2 kcal/mol
17,GATATCACGTGTTTTT,0.15 kcal/mol
18,GGTCGCACGTGTTGGC,0.02 kcal/mol
19,AGGTACACGTGTCTGG,0.03 kcal/mol
20,TGGCTCACGTGGATAA,0.34 kcal/mol
21,CTTATCACGTGGACTG,0.36 kcal/mol
22,AGCTTCACGTGGTGTG,0.2 kcal/mol
23,TTGATCACGTGACGTG,0.14 kcal/mol
24,GATGACACGTGAGGTG,0.34 kcal/mol
25,CCGGGCACGTGAGGGG,0.07 kcal/mol
26,AGGAGCACGTGCGTTA,-0.08 kcal/mol

row,Sequence,relative binding free energy
1,GGTGGCACGTGGGCTC,-0.24 kcal/mol
2,CGAGTCACGTGAAGGT,0.35 kcal/mol
3,ATGTACACGTGACTTT,0.24 kcal/mol
4,GAGGACACGTGAGGGA,0.23 kcal/mol
5,GGTGGCACGTGCGTCT,-0.09 kcal/mol
6,TAGTGCACGTGACGCG,0.09 kcal/mol
7,TACTGCACGTGTTGGA,-0.01 kcal/mol
8,TCGTTCACGTGGTCGT,0.17 kcal/mol
9,TTCAACACGTGTTATT,0.11 kcal/mol
10,TGTGACACGTGTAGAT,0.3 kcal/mol
11,GAGAACACGTGTGTTA,0.14 kcal/mol
12,TGTATCACGTGCGTTG,0.04 kcal/mol
13,TCTATCACGTGGATTG,0.11 kcal/mol
14,GGCTGCACGTGTTTTA,0.2 kcal/mol
15,AGACGCACGTGGGTGG,-0.18 kcal/mol
16,TGTAGCACGTGTCGCT,-0.1 kcal/mol
17,GGGGCCACGTGGTGAA,-0.04 kcal/mol
18,TGGGCCACGTGCTTTG,-0.2 kcal/mol
19,GTTGTCACGTGCCAGG,0.1 kcal/mol
20,TTGCCCACGTGTTGGT,0 kcal/mol
21,GGGGACACGTGGTACG,-0.05 kcal/mol
22,TTTGACACGTGTTCTT,0.04 kcal/mol
23,TCGTACACGTGATGTG,0.19 kcal/mol
24,TTGGTCACGTGTTCAT,0.01 kcal/mol
25,GTTCGCACGTGCTTGG,-0.07 kcal/mol
26,ATGAGCACGTGTCTTG,-0.19 kcal/mol

row,Sequence,relative binding free energy
1,AGGAACACGTGTTGTT,0.03 kcal/mol
2,TTTATCACGTGCCTGT,0.04 kcal/mol
3,GAACTCACGTGGGTTT,0.12 kcal/mol
4,AGTGACACGTGGCGAT,-0.03 kcal/mol
5,GGTGTCACGTGCAGTT,0.13 kcal/mol
6,AGTGACACGTGTAGTA,-0.01 kcal/mol
7,AAGTGCACGTGGTAAA,0 kcal/mol
8,TGAGACACGTGTTGTG,0.02 kcal/mol
9,AGGGACACGTGAGAGG,0.17 kcal/mol
10,CGTATCACGTGTTGGA,0.26 kcal/mol
11,CGGTTCACGTGTAGAT,0.47 kcal/mol
12,CTTTTCACGTGATGAG,0.4 kcal/mol
13,GTTAGCACGTGTGCAT,-0.04 kcal/mol
14,GGTTGCACGTGCAGTA,-0.01 kcal/mol
15,AAAGGCACGTGGGTCT,-0.14 kcal/mol
16,GATTACACGTGGGGGC,0.13 kcal/mol
17,GAAGTCACGTGGTATA,0.1 kcal/mol
18,TGGGGCACGTGATGAT,-0.03 kcal/mol
19,GTTATCACGTGGTCAT,0.2 kcal/mol
20,CGTTTCACGTGGGAGA,0.1 kcal/mol
21,TTACGCACGTGTGGGT,0.05 kcal/mol
22,GGCTGCACGTGGCGCG,-0.15 kcal/mol
23,TGTGCCACGTGATGAG,0.07 kcal/mol
24,TGTTTCACGTGAGGGA,0.32 kcal/mol
25,TGTGTCACGTGTTCAC,0.08 kcal/mol
26,GCGATCACGTGTGGGA,0.14 kcal/mol

row,Sequence,relative binding free energy
1,TGCGGCACGTGCAAGG,-0.1 kcal/mol
2,GTGAGCACGTGTGTGC,0 kcal/mol
3,GATTGCACGTGTCGAG,0.14 kcal/mol
4,GTAGGCACGTGATCTT,0.02 kcal/mol
5,GGGGGCACGTGGGGCT,-0.22 kcal/mol
6,TCATTCACGTGGTTTA,0.21 kcal/mol
7,TCCTTCACGTGGTGTT,0.12 kcal/mol
8,TTTCACACGTGATATG,0.08 kcal/mol
9,ATTTTCACGTGCGATT,0.29 kcal/mol
10,TATCACACGTGTTATT,0.12 kcal/mol
11,TGTCACACGTGTTTGA,-0.06 kcal/mol
12,GACTTCACGTGTAGTG,0.22 kcal/mol
13,GTGCGCACGTGCGTGG,-0.13 kcal/mol
14,AGGGTCACGTGACATT,0.1 kcal/mol
15,AGCGTCACGTGGCGTT,0.02 kcal/mol
16,TGTAGCACGTGGATTG,-0.08 kcal/mol
17,AATTTCACGTGAGAGT,0.36 kcal/mol
18,TTGCACACGTGTTGTG,0.02 kcal/mol
19,AGTGGCACGTGATTAG,0.01 kcal/mol
20,GGGAACACGTGGGGAG,-0.07 kcal/mol
21,GGACTCACGTGAGTGG,0.28 kcal/mol
22,CGAGCCACGTGGGGGG,-0.23 kcal/mol
